Measurements from PubChem BioAssay AID1745853 (National Center for Advancing Translational Sciences (NCATS), 2022).
The other results are listed elsewhere or left out. Shown are side measurements of this screen, not its main read-out; they come without a call.

Assays:
Assay in all cases: Primary Screen for Target Class Profiling of Small Molecule Inhibitors of Methyltransferases
[1] = target: Glycine N-methyltransferase (Homo sapiens) (UniProt Q14749); conditions: purified enzyme, MTase-Glo SAH luminescence; measured here: GNMT inhibition; at 40 µM; stronger effect = lower value
In short: (§1)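 Each enzyme was assayed with SAM and its substrate. SAH formation detected by MTase-Glo luminescence; single-point 40 uM screen[…].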

[2] = target: Guanidinoacetate N-methyltransferase (Homo sapiens) (UniProt Q14353); conditions: purified enzyme, MTase-Glo SAH luminescence; measured here: GAMT inhibition; at 40 µM; stronger effect = lower value
In short: as §1

[3] = target: Histamine N-methyltransferase (Homo sapiens) (UniProt P50135); conditions: purified enzyme, MTase-Glo SAH luminescence; measured here: HNMT inhibition; at 40 µM; stronger effect = lower value
In short: as §1

[4] = target: Nicotinamide N-methyltransferase (Homo sapiens) (UniProt P40261); conditions: purified enzyme, MTase-Glo SAH luminescence; measured here: NNMT inhibition; at 40 µM; stronger effect = lower value
In short: as §1

[5] = target: Phenylethanolamine N-methyltransferase (Homo sapiens) (UniProt P11086); conditions: purified enzyme, MTase-Glo SAH luminescence; measured here: PNMT inhibition; at 40 µM; stronger effect = lower value
In short: as §1
% is set by controls: 0 for no effect and ±100 for the full control effect.

Row | SMILES | activity change, negative = inhibition [1] [%] | activity change, negative = inhibition [2] [%] | activity change, negative = inhibition [3] [%] | activity change, negative = inhibition [4] [%] | activity change, negative = inhibition [5] [%]
1 | Cc1ccn(CC(=O)N2CCCn3ccnc3C2c2cnn(C)c2)n1 (stereo not given) | -1.48 | -13.3 | -0.47 | -9.75 | -1.79
2 | O=C(Cn1ccc2cc(S(=O)(=O)N3CCCCC3)ccc21)NCCC1=CCCCC1 | 0.757 | 0 | -1.7 | -5.26 | -4.63
3 | O=S(=O)(Nc1ccc(Cl)c(C(F)(F)F)c1)c1ccc2[nH]c3c(c2c1)CCCC3 | -17 | -3.15 | -5.9 | -16.4 | -2.12
4 | CC(C)c1ccc(-c2cc3n(n2)CC(C)(C(=O)NC2CCCCC2)N(Cc2ccco2)C3=O)cc1 (stereo not given) | -7.33 | 4.46 | -1.06 | 2.8 | -1.68
5 | Cc1ccc(C2c3cccn3-c3sc4c(c3CN2C(=O)NC(C)C)CCCC4)cc1 (stereo not given) | -4.62 | 0 | 9.95 | 7.91 | 4.74
6 | O[C@H]1[C@H](NCc2cnc3ccccc3c2)[C@H]2CO[C@H](O2)[C@@H]1N1CCCCC1 | -2.62 | -6.84 | -4.11 | -10.4 | -0.96
7 | COc1ccccc1CNC(=O)C1(C)Cn2cnc(C(=O)Nc3ccccc3OC)c2C(=O)N1C1CC1 (stereo not given) | 2.15 | 0 | 14.3 | 6.65 | 9.29
8 | C=C1CC2OC(=O)C(=C)C2C(O)/C=C(\C)CCC1O (stereo not given) | 0.846 | -2.22 | 6.5 | -11.1 | -4.29
9 | Cc1cnn(CCC(=O)NC2CCc3nnc(C)n3CC2)c1 (stereo not given) | 0.819 | 0.666 | 1.22 | -0.741 | 4.78
10 | O=C(CCc1cc2n(n1)CCCNC2)Nc1ccc2c(c1)OCCO2 | -13.2 | -12.3 | -9.1 | -18.3 | -26
11 | Cn1cc(-c2ccc3nnc(Sc4ccc5nn(C)cc5c4)n3n2)cn1 | -21.5 | 1.96 | 3.42 | -16.4 | -1.36
12 | CC(C)CCn1c(=O)c2ccccc2n2c(=O)n(Cc3ccc(F)cc3)nc12 | 4.72 | 1.31 | 10.4 | -1.79 | 6.37
13 | Cc1nc(CN2CCN(c3cc(C4CC(O)C4)ncn3)CC2)cs1 (stereo not given) | -5.03 | -7.65 | -1.35 | -6.45 | -3.79
14 | O=C(c1cccnc1)N1CCC2(CC1)C(=O)NN=C2c1cccnc1 | -6.16 | -8.62 | -1.47 | -20.5 | -8.8
15 | COc1ccccc1CNC(=O)c1cc2n(n1)CC(C)(C(=O)NC1CCCCCC1)N(C)C2=O (stereo not given) | 0.638 | 4.68 | -0.408 | 3.55 | 0.063
16 | CCCn1c(=O)c2ccccc2n2c(=O)n(CC(=O)c3ccccc3)nc12 | -2.28 | 0.136 | 8.12 | -12.9 | 4.24
17 | C/C(=C\CCC(C)C1CC(O)C2(C)C3CCC4C(C)(C)C(OC5OCC(O)C(O)C5O)CCC45CC35CC(O)C12C)C(=O)O (stereo not given) | -1.4 | -5.66 | 6.02 | -15.8 | 0.081
18 | CC(=O)OC(C)C(C)(O)C(=O)O[C@@H]1CC[C@]2(C)CC(=O)C(=C(C)C)C[C@H]2[C@]1(C)OC(C)=O (stereo not given in full) | -0.844 | 2.95 | 3.85 | -9.45 | -5.12
19 | O=C1COCC2(CN(CCC(F)(F)F)C2)CN1Cc1cccc(OC(F)(F)F)c1 | -0.924 | -5.23 | -0.634 | -8.35 | 4.89
20 | Cn1c(=O)n(C)c2cc(S(=O)(=O)N(Cc3ccccc3)C(=O)c3ccco3)ccc21 | 4.15 | -17.9 | 3.82 | -24 | -0.348

Row | SMILES | activity change, negative = inhibition [1] [%] | activity change, negative = inhibition [2] [%] | activity change, negative = inhibition [3] [%] | activity change, negative = inhibition [4] [%] | activity change, negative = inhibition [5] [%]
21 | CCCn1c(=O)c2ccc(Cl)cc2n2c(=O)n(CC(=O)NC3CCCCC3)nc12 | 2.85 | 0 | 5.3 | -0.598 | -0.776
22 | CCC1c2ccc(C)n2CCN1C(=O)Nc1ccccc1OC (stereo not given) | -7.19 | 0 | -6.22 | 6.17 | -1.51
23 | Cc1ccc(NC(=O)CN(C)S(=O)(=O)c2ccc3[nH]c4c(c3c2)CCCC4)cc1C | 3.58 | 0.131 | 5.96 | 1.05 | 2.41
24 | CCCn1c(=O)c2ccccc2n2c(SCc3cccc(C)c3)nnc12 | -6.46 | 1.62 | 3.83 | -8.15 | 2.66
25 | Fc1ccc2nc(CO[C@H]3CN(C4CCC4)C[C@H]3F)[nH]c2c1 | -3.02 | -3.41 | -3.21 | -1.64 | -4.62
26 | CC(C)NC(=O)C1COC2(CCCCC2)N1C(=O)Cc1ccccc1 (stereo not given) | -1.48 | -1.67 | 1.29 | -7.15 | 8.61
27 | CCOC(=O)c1cc2n(n1)CC(C)(C(=O)NC1CCCC1)N(c1cc(Cl)ccc1OC)C2=O (stereo not given) | 2 | 3.68 | 6.65 | -1.35 | 3.13
28 | O=C(NCC1CC1)C1CCCN(C2CCN(Cc3ccncc3)CC2)C1 (stereo not given) | -2.34 | -1.31 | -0.546 | -9.02 | -4.71
29 | O=C(Cc1ccc(F)c(F)c1F)N[C@@H]1CCNC[C@H]1O | -1.45 | -0.281 | -0.255 | -0.412 | -0.691
30 | CC(C)OC(=O)N1CCC(COc2ccc3c(cnn3CCC(=O)O)c2)CC1 | -4.92 | -0.279 | 0.435 | -9.36 | -4.08
31 | COc1ccc(-c2nc(C3CC3)nc3c2CCN(CCC(C)C)CC3)cc1 | -6.34 | -1.55 | -11.2 | -13.9 | -26.4
32 | COC(=O)[C@]1(C)CCC[C@@]2(C)[C@@H]3CC[C@@H]4C[C@@]3(CC[C@@H]21)C[C@H]4C(=O)O | -18 | 2.88 | 7.16 | -12.5 | 1.86
33 | COc1ccc(-c2cc3n(n2)CC(C)(C(=O)NCc2ccccc2)N(c2cccc(F)c2)C3=O)cc1 (stereo not given) | -3.53 | 3.84 | 2.34 | -0.724 | -1.31
34 | CC(C)CNC(=O)c1ccc2c(=O)n(C(C)C)c3nn(Cc4cccc(F)c4)c(=O)n3c2c1 | 1.64 | 0 | 7.18 | 0.737 | -0.485
35 | CCc1nc2c(NC(=O)c3ccc(F)c(Cl)c3)cccn2n1 | -2.35 | -12.2 | -0.659 | -10.8 | -19.8
36 | CCOc1cccc(C2c3cccn3-c3sc4c(c3CN2C(=O)NCCCOC)CCCC4)c1 (stereo not given) | -5.76 | 0 | 3.96 | -7.84 | 4.2
37 | CN1CCCN(CC(=O)N2CCCC(c3ccc(C(=O)O)cc3)C2)CC1 (stereo not given) | 0.171 | -3.6 | 1.07 | 3.12 | 0.699
38 | Cn1c(=O)n(C)c2cc(S(=O)(=O)N3CCN(C4CCCCC4)CC3)c(Cl)cc21 | 2.71 | 4.44 | -34 | -3.58 | -5.6
39 | O=C(c1ccc2c(=O)nc3c(-c4cccc(F)c4)n[nH]n3c2c1)N1CCN(c2ccccn2)CC1 | -7.55 | 4.3 | -5.14 | -2.4 | -2.09
40 | O=C1NC2(CCN(Cc3ccccc3)C2)Oc2ccccc21 (stereo not given) | -8.89 | -6.14 | -2.86 | -9.54 | -4.63

Row | SMILES | activity change, negative = inhibition [1] [%] | activity change, negative = inhibition [2] [%] | activity change, negative = inhibition [3] [%] | activity change, negative = inhibition [4] [%] | activity change, negative = inhibition [5] [%]
41 | COC(=O)CC(C)(O)CC(=O)OCc1ccc(O[C@@H]2O[C@H](CO)[C@@H](O)[C@H](O)[C@H]2O)cc1 (stereo not given in full) | 3.56 | 5.59 | 5.75 | -6.35 | 7.15
42 | CC1CCC2(C(=O)O)CCC3(C)C(=CCC4C5(C)CCC(OC(=O)/C=C/c6ccccc6)C(C)(C)C5CCC43C)C2C1C (stereo not given) | -3.46 | 0.257 | 10.8 | -13.4 | -9.98
43 | CN(CCc1ccccc1)[C@@H]1[C@H](O)[C@H](CO)O[C@@H]1CNS(=O)(=O)c1cccs1 | -1.47 | -1.71 | -4.56 | -3.8 | 0.724
44 | CC(C)=CCC[C@](C)(O[C@@H]1O[C@H](CO[C@@H]2OC[C@@H](O)[C@H](O)[C@H]2O)[C@@H](O)[C@H](O)[C@H]1O)[C@H]1CC[C@]2(C)[C@@H]1[C@H](O)C[C@@H]1[C@@]3(C)CC[C@H](O[C@@H]4O[C@H](CO)[C@@H](O)[C@H](O)[C@H]4O)C(C)(C)[C@@H]3CC[C@]12C | -0.711 | 9.26 | 0.073 | -1.62 | 2.21
45 | CC(C)C[C@H](CO)Nc1nc(S[C@@H](C)c2ccccc2)nc2nc(N)sc12 | -10.1 | -0.839 | 2.93 | -50.2 | -4.36
46 | CO[C@H]1c2cc(C(C)C)c(O)c(O)c2[C@@]23CCCC(C)(C)C2[C@@H]1OC3=O (stereo not given in full) | -1.8 | 1.91 | 5.79 | -12.1 | 2.97
47 | CC(C)c1nc2c(c(-c3ccc(O)cc3)n1)CCN(C(=O)C1CCCC1)CC2 | -1.87 | -0.569 | 2.33 | -9.34 | 0.024
48 | NCCC(=O)N1CCC2(CC1)CN(C(=O)c1ccc(Cl)cc1)CCO2 | -5.34 | -10.1 | -4.29 | -14.3 | -10.2
49 | CC12CC3CC(C)(C1)CC(N)(C3)C2 | -2.61 | -1.04 | -5.03 | -12 | -5.24
50 | Cc1ncc(CN2CCCC2C(=O)Nc2ccc(-c3cccc(F)c3)cc2)[nH]1 (stereo not given) | -2.05 | -2.38 | -15.8 | -6.68 | -1.67
51 | O=C1NC(=NC2CCCCC2)C2(CCN(CC3CCCCC3)C2)N1c1cccnc1 (stereo not given) | -11.2 | -4.68 | -2.48 | -41.3 | -4.91
52 | CCCn1c(=O)c2ccccc2n2c(SCC(=O)Nc3ccc(C)cc3Cl)nnc12 | -14.1 | 0 | 1.98 | -9.99 | 0.967
53 | O=C(/C=C/c1ccccc1O)O[C@@H]1O[C@H](CO)[C@@H](O)[C@H](O)[C@H]1O | 4.18 | 7.95 | 5.01 | -3.94 | 8.15
54 | CC(C)Cn1c(=O)c2ccc(C(=O)NC(C)C)cc2n2c(=O)n(CC(=O)c3ccc(Cl)cc3)nc12 | 0.606 | 5.62 | 2.66 | -1.89 | 2.06
55 | CCCn1c(=O)c2ccc(C(=O)NC(C)C)cc2n2c(=O)n(Cc3ccc(N4CCCC4=O)cc3)nc12 | 6.38 | 3.06 | 10.7 | 0.517 | 7.57
56 | CC(C)CN1C(=O)CCc2cc(NC(=O)C3CCC3)ccc21 | -4.7 | -9.94 | -11.7 | -12.9 | -14.1
57 | C=C1CN(Cc2ccc(C(=O)Nc3ccccc3N)cc2)C(=O)c2ccccc21 | -5.59 | 9.89 | -2.06 | -18.1 | -12.9
58 | C[C@H]1[C@H](C)C[C@@H](C(=O)O)C2CC[C@]3(C)C(=CC[C@@H]4[C@@]5(C)CC[C@H](O)C(C)(C)[C@@H]5CC[C@]43C)[C@@H]21 (stereo not given in full) | -9.98 | -7.39 | -8.43 | -29.4 | -18
